Patent US20210238308A1 (Chugai, published 2021)

T1: PRYSPRY domain of mouse TRIM21 with N-terminal 6xHis tag (mouse)
T1 construct: Expressed in E. coli; also called mTRIM21; mouse TRIM21.PRYSPRY
T1 chain: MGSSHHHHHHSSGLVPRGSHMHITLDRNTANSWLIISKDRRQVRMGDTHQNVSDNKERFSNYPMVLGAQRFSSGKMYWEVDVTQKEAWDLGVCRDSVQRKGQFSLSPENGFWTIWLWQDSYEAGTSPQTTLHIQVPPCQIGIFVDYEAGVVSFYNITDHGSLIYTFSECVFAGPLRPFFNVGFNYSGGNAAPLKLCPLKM

T2: PRYSPRY domain of human TRIM21 with N-terminal 6xHis tag (human)
T2 construct: Expressed in E. coli; also called hTRIM21; human TRIM21.PRYSPRY
T2 chain: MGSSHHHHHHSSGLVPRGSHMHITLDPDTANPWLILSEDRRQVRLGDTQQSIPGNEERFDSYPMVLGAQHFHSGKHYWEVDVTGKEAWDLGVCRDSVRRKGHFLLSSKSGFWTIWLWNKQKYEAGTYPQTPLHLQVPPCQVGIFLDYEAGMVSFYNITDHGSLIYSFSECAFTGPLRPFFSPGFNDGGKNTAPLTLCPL

B1: MRAH-G1d/MRAL-KT0 D312M (antibody, human IgG1, kappa)
heavy: QVQLQESGPGLVRPSQTLSLTCTVSGYSITSDHAWSWVRQPPGRGLEWIGYISYSGITTYNPSLKSRVTMLRDTSKNQFSLRLSSVTAADTAVYYCARSLARTTAMDYWGQGSLVTVSS[human IgG1 constant region with D312M (EU numbers) omitted here]
light: DIQMTQSPSSLSASVGDRVTITCRASQDISSYLNWYQQKPGKAPKLLIYYTSRLHSGVPSRFSGSGSGTDFTFTISSLQPEDIATYYCQQGNTLPYTFGQGTKVEIKRTVAAPSVFIFPPSDEQLKSGTASVVCLLNNFYPREAKVQWKVDNALQSGNSQESVTEQDSKDSTYSLSSTLTLSKADYEKHKVYACEVTHQGLSSPVTKSFNRGEC
notes: copies: 2 + 2
B2: MRAH-G1d/MRAL-KT0 D312N (antibody, human IgG1, kappa)
heavy: QVQLQESGPGLVRPSQTLSLTCTVSGYSITSDHAWSWVRQPPGRGLEWIGYISYSGITTYNPSLKSRVTMLRDTSKNQFSLRLSSVTAADTAVYYCARSLARTTAMDYWGQGSLVTVSS[human IgG1 constant region with D312N (EU numbers) omitted here]
light: B1 light
notes: copies: 2 + 2
B3: MRAH-G1d/MRAL-KT0 D312P (antibody, human IgG1, kappa)
heavy: QVQLQESGPGLVRPSQTLSLTCTVSGYSITSDHAWSWVRQPPGRGLEWIGYISYSGITTYNPSLKSRVTMLRDTSKNQFSLRLSSVTAADTAVYYCARSLARTTAMDYWGQGSLVTVSS[human IgG1 constant region with D312P (EU numbers) omitted here]
light: B1 light
notes: copies: 2 + 2
B4: MRAH-G1d/MRAL-KT0 D312Q (antibody, human IgG1, kappa)
heavy: QVQLQESGPGLVRPSQTLSLTCTVSGYSITSDHAWSWVRQPPGRGLEWIGYISYSGITTYNPSLKSRVTMLRDTSKNQFSLRLSSVTAADTAVYYCARSLARTTAMDYWGQGSLVTVSS[human IgG1 constant region with D312Q (EU numbers) omitted here]
light: B1 light
notes: copies: 2 + 2
B5: MRAH-G1d/MRAL-KT0 D312R (antibody, human IgG1, kappa)
heavy: QVQLQESGPGLVRPSQTLSLTCTVSGYSITSDHAWSWVRQPPGRGLEWIGYISYSGITTYNPSLKSRVTMLRDTSKNQFSLRLSSVTAADTAVYYCARSLARTTAMDYWGQGSLVTVSS[human IgG1 constant region with D312R (EU numbers) omitted here]
light: B1 light
notes: copies: 2 + 2
B6: MRAH-G1d/MRAL-KT0 D312S (antibody, human IgG1, kappa)
heavy: QVQLQESGPGLVRPSQTLSLTCTVSGYSITSDHAWSWVRQPPGRGLEWIGYISYSGITTYNPSLKSRVTMLRDTSKNQFSLRLSSVTAADTAVYYCARSLARTTAMDYWGQGSLVTVSS[human IgG1 constant region with D312S (EU numbers) omitted here]
light: B1 light
notes: copies: 2 + 2
B7: MRAH-G1d/MRAL-KT0 D312T (antibody, human IgG1, kappa)
heavy: QVQLQESGPGLVRPSQTLSLTCTVSGYSITSDHAWSWVRQPPGRGLEWIGYISYSGITTYNPSLKSRVTMLRDTSKNQFSLRLSSVTAADTAVYYCARSLARTTAMDYWGQGSLVTVSS[human IgG1 constant region with D312T (EU numbers) omitted here]
light: B1 light
notes: copies: 2 + 2
B8: MRAH-G1d/MRAL-KT0 D312V (antibody, human IgG1, kappa)
heavy: QVQLQESGPGLVRPSQTLSLTCTVSGYSITSDHAWSWVRQPPGRGLEWIGYISYSGITTYNPSLKSRVTMLRDTSKNQFSLRLSSVTAADTAVYYCARSLARTTAMDYWGQGSLVTVSS[human IgG1 constant region with D312V (EU numbers) omitted here]
light: B1 light
notes: copies: 2 + 2
B9: MRAH-G1d/MRAL-KT0 D312W (antibody, human IgG1, kappa)
heavy: QVQLQESGPGLVRPSQTLSLTCTVSGYSITSDHAWSWVRQPPGRGLEWIGYISYSGITTYNPSLKSRVTMLRDTSKNQFSLRLSSVTAADTAVYYCARSLARTTAMDYWGQGSLVTVSS[human IgG1 constant region with D312W (EU numbers) omitted here]
light: B1 light
notes: copies: 2 + 2
B10: MRAH-G1d/MRAL-KT0 D312Y (antibody, human IgG1, kappa)
heavy: QVQLQESGPGLVRPSQTLSLTCTVSGYSITSDHAWSWVRQPPGRGLEWIGYISYSGITTYNPSLKSRVTMLRDTSKNQFSLRLSSVTAADTAVYYCARSLARTTAMDYWGQGSLVTVSS[human IgG1 constant region with D312Y (EU numbers) omitted here]
light: B1 light
notes: copies: 2 + 2
B11: MRAH-G1d/MRAL-KT0 E345D (antibody, human IgG1, kappa)
heavy: QVQLQESGPGLVRPSQTLSLTCTVSGYSITSDHAWSWVRQPPGRGLEWIGYISYSGITTYNPSLKSRVTMLRDTSKNQFSLRLSSVTAADTAVYYCARSLARTTAMDYWGQGSLVTVSS[human IgG1 constant region with E345D (EU numbers) omitted here]
light: B1 light
B12: MRAH-G1d/MRAL-KT0 E345F (antibody, human IgG1, kappa)
heavy: QVQLQESGPGLVRPSQTLSLTCTVSGYSITSDHAWSWVRQPPGRGLEWIGYISYSGITTYNPSLKSRVTMLRDTSKNQFSLRLSSVTAADTAVYYCARSLARTTAMDYWGQGSLVTVSS[human IgG1 constant region with E345F (EU numbers) omitted here]
light: B1 light
B13: MRAH-G1d/MRAL-KT0 E345H (antibody, human IgG1, kappa)
heavy: QVQLQESGPGLVRPSQTLSLTCTVSGYSITSDHAWSWVRQPPGRGLEWIGYISYSGITTYNPSLKSRVTMLRDTSKNQFSLRLSSVTAADTAVYYCARSLARTTAMDYWGQGSLVTVSS[human IgG1 constant region with E345H (EU numbers) omitted here]
light: B1 light
B14: MRAH-G1d/MRAL-KT0 E345I (antibody, human IgG1, kappa)
heavy: QVQLQESGPGLVRPSQTLSLTCTVSGYSITSDHAWSWVRQPPGRGLEWIGYISYSGITTYNPSLKSRVTMLRDTSKNQFSLRLSSVTAADTAVYYCARSLARTTAMDYWGQGSLVTVSS[human IgG1 constant region with E345I (EU numbers) omitted here]
light: B1 light

Target: T3, human FcRn (human, UniProt P55899 partial chain; P61769 partial chain, limits assumed)
T3 construct: also called hFcRn
Assay: SPR, Protein L capture

T3 sequence (P55899 24-290 limits assumed, form in doubt, chain 1 of 2): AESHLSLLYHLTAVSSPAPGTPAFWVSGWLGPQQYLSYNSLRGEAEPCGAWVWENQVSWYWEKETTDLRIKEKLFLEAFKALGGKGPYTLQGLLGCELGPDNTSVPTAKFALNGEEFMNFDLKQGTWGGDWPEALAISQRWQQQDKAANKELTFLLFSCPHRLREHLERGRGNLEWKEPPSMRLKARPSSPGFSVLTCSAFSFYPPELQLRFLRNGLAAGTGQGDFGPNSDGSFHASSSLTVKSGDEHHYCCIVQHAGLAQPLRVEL
T3 sequence (P61769 21-119 limits assumed, form in doubt, chain 2 of 2, further chain): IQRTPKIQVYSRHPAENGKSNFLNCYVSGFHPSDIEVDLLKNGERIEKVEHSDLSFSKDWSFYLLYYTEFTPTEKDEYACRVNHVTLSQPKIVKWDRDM

| Binder | hFcRn binding level ratio (variant/control antibody) |
| --- | --- |
| B1 | 0.78 |
| B2 | 0.24 |
| B3 | 0.2 |
| B4 | 0.16 |
| B5 | 0.05 |
| B6 | 1.05 |
| B7 | 0.94 |
| B8 | 0.73 |
| B9 | 0.04 |
| B10 | 0.06 |
| B11 | 0.92 |
| B12 | 0.92 |
| B13 | 0.67 |
| B14 | 0.88 |

Target: T1, PRYSPRY domain of mouse TRIM21 with …
Assay: SPR, Protein L capture

| Binder | mTRIM21 binding level ratio (variant/control antibody) |
| --- | --- |
| B1 | 2.76 |
| B2 | 2.58 |
| B3 | 2.96 |
| B4 | 2.85 |
| B5 | 2.74 |
| B6 | 2.53 |
| B7 | 2.75 |
| B8 | 2.59 |
| B9 | 2.67 |
| B10 | 2.9 |
| B11 | 2.26 |
| B12 | 2.43 |
| B13 | 2.64 |
| B14 | 2.52 |

Target: T2, PRYSPRY domain of human TRIM21 with …
Assay: SPR, Protein L capture

| Binder | hTRIM21 binding level ratio (variant/control antibody) |
| --- | --- |
| B1 | 1.09 |
| B2 | 1.08 |
| B3 | 1.11 |
| B4 | 1.11 |
| B5 | 1.17 |
| B6 | 1.14 |
| B7 | 1.11 |
| B8 | 0.937 |
| B9 | 1.25 |
| B10 | 1.27 |
| B11 | 0.908 |
| B12 | 0.496 |
| B13 | 0.591 |
| B14 | 0.518 |
